Assay results published in the supplement of paper PMC2702839.
Where a name gives a salt, the structure may show the parent alone. The list shows a part of the results.

system: Schistosoma mansoni schistosomula; assay: phenotypic hit in primary schistosomula screen (any phenotype vs DMSO control) (binary (1 = hit, 0 = no phenotype)); higher = active (phenotype induced); conditions: 1 µM; time (d): 7

Structure (SMILES) | phenotypic hit
C1N2CN3CN1CN(C2)C3 [methenamine] | inactive: 0
O=C(O)C1=C[C@@H](O)[C@@H](O)[C@H](O)C1 [shikimic acid] | inactive: 0
O=C(/C=C(\O)c1ccccc1)c1ccccc1O [2',beta-dihydroxychalcone] | inactive: 0
c1ccc2c(c1)CCCC2C1=NCCN1 (configuration not stated) [tetrahydrozoline hydrochloride] | inactive: 0
CCC(=O)O[C@H]1CC[C@H]2[C@@H]3CCc4cc(O)ccc4[C@H]3CC[C@]12C [estradiol propionate] | inactive: 0
Oc1c(Br)cc(Br)c2cccnc12 [broxyquinoline] | inactive: 0
COc1ccc(-c2coc3cc(O)ccc3c2=O)cc1 [formononetin] | inactive: 0
NC(=O)c1ccccc1O [salicylamide] | inactive: 0
COc1cc(O)c2c(=O)cc(-c3ccc(OC)c(-c4c(O)cc(O)c5c(=O)cc(-c6ccc(O)cc6)oc45)c3)oc2c1 [ginkgetin, k salt] | inactive: 0
CCOC(=O)N1CCC(=C2c3ccc(Cl)cc3CCc3cccnc32)CC1 [loratadine] | inactive: 0
COC(=O)[C@H](c1ccccc1Cl)N1CCc2sccc2C1 [clopidogrel sulfate] | inactive: 0
C[C@]12CCC(=O)C=C1CC[C@@H]1[C@@H]2C(=O)C[C@@]2(C)[C@H]1CC[C@]2(O)C(=O)CO [cortisone] | inactive: 0
CC(=O)O[C@H]1CC[C@]2(C)C(C[C@H](OC(C)=O)[C@]3(C)C4=CC(=O)OC(c5ccoc5)[C@@]4(C)CCC23)C1(C)C (stereo partly drawn) [3beta,7beta-diacetoxydeoxodeacetoxydeoxydihydrogedunin] | inactive: 0
CN(C)[C@@H]1C(O)=C(C(N)=O)C(=O)[C@@]2(O)C(O)=C3C(=O)c4c(O)cccc4[C@@](C)(O)[C@H]3C[C@@H]12 [tetracycline hydrochloride] | inactive: 0
O=C(O)C1CCCNC1 (racemic) [(±)-Nipecotic acid] | inactive: 0
Cc1ccc(N(CC2=NCCN2)c2cccc(O)c2)cc1 [Phentolamine mesylate] | inactive: 0
CCc1ccc(CCOc2ccc(CC3SC(=O)NC3=O)cc2)nc1 (configuration not stated) [pioglitazone hydrochloride] | inactive: 0
CC(C)NCC(O)c1ccc(O)c(O)c1 (racemic) [(±)-Isoproterenol hydrochloride] | inactive: 0
CO[C@H]1/C=C/O[C@@]2(C)Oc3c(C)c(O)c4c(O)c(c(/C=N/N5CCN(C)CC5)c(O)c4c3C2=O)NC(=O)/C(C)=C\C=C\[C@H](C)[C@H](O)[C@@H](C)[C@@H](O)[C@@H](C)[C@H](OC(C)=O)[C@@H]1C [rifampin] | inactive: 0

Structure (SMILES) | phenotypic hit
CC(=O)C1=C(O)C=C2Oc3c(C(C)=O)c(O)c(C)c(O)c3C2(C)C1=O (stereo in doubt) [usnic acid] | inactive: 0
C[C@@H]1CC[C@H]2C(C)(C)[C@H]3C[C@@]12CC[C@@]3(C)O [cedrol] | inactive: 0
CCCSc1ccc2[nH]c(NC(=O)OC)nc2c1 [albendazole] | inactive: 0
Cc1c(Cl)cccc1Nc1ccccc1C(=O)O [tolfenamic acid] | inactive: 0
CC(=O)OCC1(C)CCC2(C)CCC3(C)C4=CCc5c(cc(OC(C)=O)c(OC(C)=O)c5C)C4(C)CCC3(C)C2C1 (configuration not stated) [2,3,29-triacetoxy-24-nor-1,3,5,7-friedelatetraene] | active: 1
CC[C@H]1OC(=O)[C@H](C)[C@@H](O[C@H]2C[C@@](C)(OC)[C@@H](O)[C@H](C)O2)[C@H](C)[C@@H](O[C@@H]2O[C@H](C)C[C@H](N(C)C)[C@H]2O)[C@](C)(O)C[C@@H](C)C(=O)[C@H](C)[C@@H](O)[C@]1(C)O [erythromycin] | inactive: 0
COc1cc(/C=C/C=O)cc(OC)c1OC [3,4,5-trimethoxycinnamaldehyde] | inactive: 0
CC1=C(/C=C/C(C)=C/C=C/C(C)=C/C=C/C=C(C)/C=C/C=C(C)/C=C/C2=C(C)CCCC2(C)C)C(C)(C)CCC1 [beta-carotene] | inactive: 0
CC1=CC(=O)[C@H]2C(C)(C)CCC[C@]2(C)[C@@]1(O)CCc1ccoc1 [solidagenone] | inactive: 0
CC(C)(Oc1ccc(CCNC(=O)c2ccc(Cl)cc2)cc1)C(=O)O [bezafibrate] | inactive: 0
OCCN1CCN(CCCN2c3ccccc3Sc3ccc(C(F)(F)F)cc32)CC1 [Fluphenazine dihydrochloride] | inactive: 0
c1ccc(CC2=NCCN2)cc1 [tolazoline hydrochloride] | inactive: 0
NCCCCC(=O)O [5-Aminovaleric acid hydrochloride] | inactive: 0
COc1c(O)cc2occ(-c3ccc(O)cc3)c(=O)c2c1O [tectorigenin] | inactive: 0
CC1(C)C=Cc2c(c3c(c4c(=O)c(-c5ccc(O)cc5)coc24)OC(C)(C)CC3)O1 [isoosajin] | inactive: 0
O=C1c2ccccc2C(=O)C1c1ccccc1 [phenindione] | inactive: 0
CC(C)[C@@H](C)/C=C/[C@@H](C)[C@H]1CC[C@H]2C3=CC=C4C[C@@H](O)CC[C@]4(C)[C@H]3CC[C@]12C [ergosterol] | inactive: 0
Clc1ccc2c(c1)C(N1CCNCC1)=Nc1ccccc1O2 [Amoxapine] | inactive: 0
